The values that follow come from ChEMBL document CHEMBL6096640, “Discovery of novel thiosemicarbazone-acridine targeting butyrylcholinesterase with antioxidant, metal complexing and neuroprotector abilities as potential treatment of Alzheimer's disease: In vitro, in vivo, and in silico studies” (Eur J Med Chem, 2025).

Conditions in all cases: Electrophorus electricus
In series [1] the test system is S=C(N/N=C/c1ccccc1)Nc1c2ccccc2nc2ccccc12. As to the kind of experiment: Inhibition of electric eel AChE using acetylthiocholine iodide as substrate assessed as Vmax at 1.5 uM preincubated for 10 mins followed by substrate addition by Lineweaver-Burk plot analysis (reference value: […] +/- […] uM/min).
Series [2] relates to O=[N+]([O-])c1ccc(/C=N/NC(=S)Nc2c3ccccc3nc3ccccc23)cc1. In words: Inhibition of electric eel AChE using acetylthiocholine iodide as substrate assessed as Km at 10 uM preincubated for 10 mins followed by substrate addition by Lineweaver-Burk plot analysis (reference value: […] +/- […] uM).
Series [3] concerns S=C(N/N=C/c1ccccc1)Nc1c2c(nc3ccccc13)CCCC2. In words: Inhibition of electric eel AChE using acetylthiocholine iodide as substrate assessed as Vmax at 11 uM preincubated for 10 mins followed by substrate addition by Lineweaver-Burk plot analysis (reference value: […] +/- […] microM/min).
The test system is the same in series [4]. As to the kind of experiment: Inhibition of electric eel AChE using acetylthiocholine iodide as substrate assessed as Vmax at 16 uM preincubated for 10 mins followed by substrate addition by Lineweaver-Burk plot analysis (reference value: […] +/- […] microM/min).
Series [5] shares this test system. As to the kind of experiment: Inhibition of electric eel AChE using acetylthiocholine iodide as substrate assessed as Km at 16 uM preincubated for 10 mins followed by substrate addition by Lineweaver-Burk plot analysis (reference value: […] +/- […] uM).
For series [6], the system named is O=[N+]([O-])c1ccc(/C=N/NC(=S)Nc2c3ccccc3nc3ccccc23)cc1. In words: Inhibition of electric eel AChE using acetylthiocholine iodide as substrate assessed as Km at 7 uM preincubated for 10 mins followed by substrate addition by Lineweaver-Burk plot analysis (reference value: […] +/- […] uM).
The test system is the same in series [7]. In words: Inhibition of electric eel AChE using acetylthiocholine iodide as substrate assessed as Vmax at 7 uM preincubated for 10 mins followed by substrate addition by Lineweaver-Burk plot analysis (reference value: […] +/- […] uM/min).
Series [8] concerns S=C(N/N=C/c1ccccc1)Nc1c2c(nc3ccccc13)CCCC2. As to the kind of experiment: Inhibition of electric eel AChE using acetylthiocholine iodide as substrate assessed as Km at 11 uM preincubated for 10 mins followed by substrate addition by Lineweaver-Burk plot analysis (reference value: […] +/- […] uM).
Series [9] relates to O=[N+]([O-])c1ccc(/C=N/NC(=S)Nc2c3ccccc3nc3ccccc23)cc1. In words: Inhibition of electric eel AChE using acetylthiocholine iodide as substrate assessed as Vmax at 10 uM preincubated for 10 mins followed by substrate addition by Lineweaver-Burk plot analysis (reference value: […] +/- […] uM/min).
Series [10] relates to S=C(N/N=C/c1ccccc1)Nc1c2ccccc2nc2ccccc12. In words: Inhibition of electric eel AChE using acetylthiocholine iodide as substrate assessed as Km at 4 uM preincubated for 10 mins followed by substrate addition by Lineweaver-Burk plot analysis (reference value: […] +/- […] uM).
Series [11] shares this test system. As to the kind of experiment: Inhibition of electric eel AChE using acetylthiocholine iodide as substrate assessed as Km at 1.5 uM preincubated for 10 mins followed by substrate addition by Lineweaver-Burk plot analysis (reference value: […] +/- […] uM).
The test system is the same in series [12]. As to the kind of experiment: Inhibition of electric eel AChE using acetylthiocholine iodide as substrate assessed as Vmax at 4 uM preincubated for 10 mins followed by substrate addition by Lineweaver-Burk plot analysis (reference value: […] +/- […] uM/min).

Broadly, the Vmax is the rate approached at saturating substrate. As usually defined, the Km is the substrate concentration at which the rate is half of its maximum. Take “Acetylcholinesterase (Electrophorus electricus) (sequence left out)”: the maximal velocity (Vmax) in [1] was found to be 9.33 µM/min; in series [3], 1.47 µM/min; in [4] it was 1.07 µM/min; in series [7], 6.75 µM/min; in series [9], 4.41 µM/min; in series [12] it was 5.38 µM/min. Further, the Michaelis constant (Km) in series [2] came to 78.3 µM; in series [5] it was 46.5 µM; in [6], 78.4 µM; in [8], 43.4 µM; in [10] it was 68.2 µM; in series [11], 67.6 µM.
